# According to ChEMBL document CHEMBL4888484, “Replenishing the malaria drug discovery pipeline: Screening and hit evaluation of the MMV Hit Generation Library 1 (HGL1) against asexual blood stage Plasmodium falciparum ,using a nano luciferase reporter read-out” (2022):
# Among all 150,000 compounds or so, about 540 (0.36%) showed an effect of 50% or more. The list shows a part of the results.
# Tested on: Plasmodium falciparum
# Test: Primary screen in NF54 nanoGlo assay, in single point, at 2uM, 72h; a lower Z score goes with more inhibition
# Assay type: functional, Erythrocyte
# Details: timepoint 72 hour
SMILES,% Inhibition [%],Z score
O=C(NCc1ccnc(OC2CCCCC2)c1)NC1CCOC1C1CC1 (stereo unspecified),-7,0.95
O=C(CCCc1ccccc1)N1CCN(c2nnc3ccc(Cl)cn23)CC1,-13,1.46
Cc1ccccc1[C@H]1CCc2nc(C(=O)NCc3ccccc3)cn2C1,11,-1.09
CCN1C[C@H](CN(C)C(=O)c2csc(-c3ccc(C)o3)n2)Oc2ccccc21,3,-0.51
Cc1cccc(C)c1OCCC(=O)NC1C2CCOC2C12CCC2 (stereo unspecified),20,-2.52
COC(C)(C)C[C@H](C)NC(=O)NCc1ccc(Br)o1,10,-1.42
COc1ccccc1OCc1csc(NC(=O)C2CCCCC2)n1,-3,0.48
Cc1ccnc(NS(=O)(=O)c2ccc(NC(=O)c3oc4cc(C)c(Cl)cc4c3C)cc2)n1,-10,1.64
COc1c(F)cc(C(=O)NCc2cc3n(n2)CCCN(C(C)=O)C3)cc1F,-13,1.7
CCc1nc2ccccc2c(C(=O)Nc2ccc(OC)c(S(=O)(=O)N3CCCCC3)c2)c1C,-9,1.34
CNc1nc2c(c(C(=O)N3CCCC3)n1)CN(c1nnc(C)c3ccccc13)CC2,2,-0.41
Cc1cccc2[nH]c([C@@H]3CCCN3CCC(=O)NCc3ccco3)nc12,-13,1.94
CO[C@@H](C(=O)Nc1cc(-c2nccn2C)n[nH]1)c1ccccc1,2,-0.26
CCC[C@H](CC)Nc1nc(C)nc2oc(C)nc12,-10,1.5
O=C(Nc1ccc2c(c1)C(=O)N1CCC[C@H]1C(=O)N2)c1ccco1,-14,1.7
Cc1ncsc1C(=O)Nc1nccn1CC(C)C,-8,1.53
COc1ccc(N2CCN(C(=O)CCN3CCN(c4ncccn4)CC3)CC2)cc1,-4,0.6
Cc1cnc(C(=O)N(C)[C@@H](C)C2CC2)cn1,-4,0.47
c1cn(C[C@H]2CCCN2Cc2cscn2)cn1,-9,1.27
CN(C(=O)C1CC2C=CC1C2)c1ccccc1 (stereo unspecified),-7,1.26
CCN(C[C@H](CC(C)C)NC(=O)c1cccnc1O)C(=O)c1cccnc1O,-7,1.38

SMILES,% Inhibition [%],Z score
CCn1ccc2ccc(CN3C[C@@H]4CC[C@H]3CN(S(=O)(=O)N(C)C)C4)cc21,6,-0.91
Cc1ccccc1C1(C(=O)Nc2cnn(C(C)C)c2)CCCC1,-14,1.54
COc1cccc([C@H]2CC(=O)Nc3ccsc32)c1OCc1ccccc1F,9,-1.26
COCCn1c(=O)n(Cc2noc(C(C)(C)C)n2)c2cc(C(=O)O)ccc21,-21,1.82
FC(F)(F)Cn1nc(C2CC2)nc1[C@H]1C[C@H]2C=C[C@@H]1C2,-7,1.24
COCC1(C)CN(C(=O)NCCC2(O)CCCOC2)CCO1 (stereo unspecified),-3,0.63
CC(=O)c1ccc(OC2(C(=O)O)CCN(C3CCCCCC3)CC2)cc1F,-4,0.72
CCn1nc(C)cc1C(=O)Nc1ccc(Cn2ccnc2C)cc1,-10,1.94
Cc1cc(Br)oc1C(=O)N1CCOC2CCCC21 (stereo unspecified),0,-0.03
CC1(C)COc2ccc(C(=O)N3CC[C@H](O)C3(C)C)cc21,19,-2.22
O=C(c1cc(O)ccn1)N1CC[C@@](F)(c2ccccc2F)C1,2,-0.27
O=C(Nc1ccc(Cl)c(Cl)c1)N1C[C@@H](O)[C@@H](O)C1,-9,1.25
CN(C)CCn1c(=O)c(CN2CCN(c3ccccn3)CC2)cc2ccc(F)cc21,6,-1.16
Cc1nc(CNC(=O)CC(C)(C)CC(=O)c2ccccc2)c(C)s1,-4,0.55
CC(C)(N)c1cc(Cl)cc(Cl)c1,-2,0.24
Cn1ccc(C(=O)N2CCC[C@H](c3c[nH]c4ncccc34)C2)n1,7,-1.12
CCCC1CCC(CN2C[C@H](C(=O)O)[C@@H](c3cncn3C)C2)CC1 (stereo partly specified),3,-0.65
O=C1CC[C@@H](C(=O)Nc2ccccc2OCC2CC2)N1,-5,1.01
Cc1n[nH]cc1CN(C)C(=O)c1cncc(F)c1,-5,0.81
COCCN(C)C(=O)Nc1ccc(Cl)c(OC(F)F)c1,0,-0.01
Cc1c(S(=O)(=O)N2C[C@H](C(=O)O)[C@@H](C)C2)oc2ccc(F)cc12,0,0.01

SMILES,% Inhibition [%],Z score
C[C@@H](NC(=O)NC1(CN(C)C)CCC1)C(=O)N1Cc2ccccc2C1,-5,0.45
Cc1ccc(NC(=O)N2CCC(c3nc4cc(Cl)ccc4o3)CC2)c(Br)c1,-1,0.18
COc1ccccc1Cc1n[nH]c(CCCn2cccn2)n1,-3,0.42
CCCN(C)C(=O)[C@H](C1CCCC1)N1CCN(C(=O)c2ccc(OC)cc2)CC1,-18,2.64
Cn1c(=O)c2c(ncn2Cc2ncc(-c3cccs3)o2)n(C)c1=O,-12,1.66
COc1ccc(Cl)cc1NC(=O)N1CC(Oc2cccc(C(F)(F)F)n2)C1,0,0.02
Cc1ncc(S(C)(=O)=O)c(N2C[C@H]3CC=CC[C@H]3C2)n1,2,-0.19
Cc1ccc(-c2cccnc2)cc1NC(=O)NCC(F)(F)C(F)F,-5,0.73
Cc1nn(-c2ccccc2)c(C)c1CN1CC2OCCN(C)C2C1 (stereo unspecified),-4,0.47
CCN1c2cc(C)ccc2-n2cccc2C12CCN(C(=O)Nc1ccccc1C(F)(F)F)CC2,-14,1.98
CC(C)CCn1ccc(NC2CCOC2C)n1 (stereo unspecified),-11,1.63
Cc1cc(C(=O)N[C@@H](Cc2ccccc2)C(N)=O)nc(C)n1,-2,0.38
CCOC(=O)C(NC(=O)[C@@H]1Cc2cccc(F)c2O1)C(=O)OCC,29,-3.3
O=C(CN1CCC[C@H](O)C1)N(C1CCCCC1)C1CCCCC1,28,-0.83
CCOC(=O)CN(C1CCCC1)S(=O)(=O)N(C)C,1,-0.1
O=S(=O)(c1ccc(F)cc1F)N1CC(OCc2ccccc2F)C1,-9,1.72
CCOC(C)C(=O)N1C2C=C(c3ccccc3)CC1CC2 (stereo unspecified),8,-0.79
CCC(=O)NC1=NN2C(=NC(c3ccc(Cl)cc3)=C[C@H]2c2ccc(F)cc2)N1,5,-0.64
CCCCNCCOCCOc1c(C)cccc1Cl,7,-1.35
COCCC1(S(=O)(=O)NCCc2ccc(C)c(OC)c2)CC1,14,-1.8
C[C@]1(c2nc(C3CC3)no2)CCCN(C(=O)c2n[nH]c3ccccc23)C1,-6,0.75

SMILES,% Inhibition [%],Z score
CC(C)(C)OC(=O)NC(C(=O)O)C1CCCC(C(F)(F)F)C1 (stereo unspecified),-16,1.64
Cc1cc(Oc2ccc(C#N)cc2)ccc1NC(=O)N1CCO[C@H](C(=O)O)C1,-13,1.19
CCOC(=O)C1CCN(C(=O)[C@@H](NC(=O)c2cc(-c3ccccc3Cl)on2)C(C)C)CC1,-11,1.66
Cc1ccc(-n2c(=O)c3c(cnn3C)n(CC(=O)Nc3ccccc3C)c2=O)cc1,1,-0.09
C[C@H]1CCCN(CCCNC(=O)CCC(=O)N2CCN(c3nc4cccnc4s3)CC2)C1,-17,1.76
Cc1ccc2c(Nc3ccc4c(c3)OCO4)c(C(=O)N3CCC(C)CC3)cnc2n1,-5,0.86
Cc1cc(=O)n(CC2CC2)c2cc(OCC(=O)Nc3ccccc3F)ccc12,-5,0.71
COC[C@H]1CCN(C(=O)Nc2ccnn2CC2CC2)C1,-5,1.02
CCn1c(=O)c2sccc2n(CC(=O)NCc2ccc(OC)cc2)c1=O,4,-0.65
CC1CN(C(C(C)N)C(F)(F)F)CC(C)O1 (stereo unspecified),1,-0.08
CCO[C@H](c1nc(-c2nccc3ccccc23)no1)C(C)C,0,0.01
O=C(c1ccccn1)[C@H]1CCCN(C(=O)NCCN2CCCOC2=O)C1,-1,0.12
CCCN(C(=O)C(=O)Nc1nncs1)C1CCCC1,-4,0.65
Cc1ncc(C(=O)N2CCC[C@]3(CCC(=O)N(C4CCCC4)C3)C2)c(=O)[nH]1,-14,1.27
CCCNC(=O)CN1CCC[C@H]1c1ccon1,-3,0.36
CC1NC2(C(=O)N(Cc3ccc(Cl)c(Cl)c3)c3ccccc32)C2C(=O)N(c3ccccc3)C(=O)C12 (stereo unspecified),-4,0.66
CC1CCN(C[C@]2(O)CCCN(CCCc3ccccc3)C2=O)CC1,-8,1.14
O=C1NC[C@H]2O[C@H](CCOc3cc(-c4ccccc4)ccc3C(=O)N3CCN(CC4CC4)C[C@@H]13)CC[C@@H]2O,-3,0.49
Cc1ccc(S(=O)(=O)N2[C@@H]3CC[C@H]2CC(NC(=O)c2ccc(F)cc2)C3)c(C)c1 (stereo partly specified),-3,0.54
CCCn1nc(C2CCOCC2)nc1[C@H]1CCC(=O)N(C)C1,-16,3.16
